Measured values as given in publication PMC4336329 (PLoS ONE, 2015).
Hit rate of the full screen: of about 310,000 compounds, about 2,200 (0.71%) showed an effect of 50% or more. The effect is printed as a negative number. The list shows a part of the results.

Each molecule was assayed against human ether-à-go-go-related gene (hERG) potassium channel (human, UniProt Q12809) (assay: primary screen, population patch clamp on CHO cells stably expressing hERG).
Chain of human ether-à-go-go-related gene (hERG) potassium channel (Q12809 whole entry, looked up): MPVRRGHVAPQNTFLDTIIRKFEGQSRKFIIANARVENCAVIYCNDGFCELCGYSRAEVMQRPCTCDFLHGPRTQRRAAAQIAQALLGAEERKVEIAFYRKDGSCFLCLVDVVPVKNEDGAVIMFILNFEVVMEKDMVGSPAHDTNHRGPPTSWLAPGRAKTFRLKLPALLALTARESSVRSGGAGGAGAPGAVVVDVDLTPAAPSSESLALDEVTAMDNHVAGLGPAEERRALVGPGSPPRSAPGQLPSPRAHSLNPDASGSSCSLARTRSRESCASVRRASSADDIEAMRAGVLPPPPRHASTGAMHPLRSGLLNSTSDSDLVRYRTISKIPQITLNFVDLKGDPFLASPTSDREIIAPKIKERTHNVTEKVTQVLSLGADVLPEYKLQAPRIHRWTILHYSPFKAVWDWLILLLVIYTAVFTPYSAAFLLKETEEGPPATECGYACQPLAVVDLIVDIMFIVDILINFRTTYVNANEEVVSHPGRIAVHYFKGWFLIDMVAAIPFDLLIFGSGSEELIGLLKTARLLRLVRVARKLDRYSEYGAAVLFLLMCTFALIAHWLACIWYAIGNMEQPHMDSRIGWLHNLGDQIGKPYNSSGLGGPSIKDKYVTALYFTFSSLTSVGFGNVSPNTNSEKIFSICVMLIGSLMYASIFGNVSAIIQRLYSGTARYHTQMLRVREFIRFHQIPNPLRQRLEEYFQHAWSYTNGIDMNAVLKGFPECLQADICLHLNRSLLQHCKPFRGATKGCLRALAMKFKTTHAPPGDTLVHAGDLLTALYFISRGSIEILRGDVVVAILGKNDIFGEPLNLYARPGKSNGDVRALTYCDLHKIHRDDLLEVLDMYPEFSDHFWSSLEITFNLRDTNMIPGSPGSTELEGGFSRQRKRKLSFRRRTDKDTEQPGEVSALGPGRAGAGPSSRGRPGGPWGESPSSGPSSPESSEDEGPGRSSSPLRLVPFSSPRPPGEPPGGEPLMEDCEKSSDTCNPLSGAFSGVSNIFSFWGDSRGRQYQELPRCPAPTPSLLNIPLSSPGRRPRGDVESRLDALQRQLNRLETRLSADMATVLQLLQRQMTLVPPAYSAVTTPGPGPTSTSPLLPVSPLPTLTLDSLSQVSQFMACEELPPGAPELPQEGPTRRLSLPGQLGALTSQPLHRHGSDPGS

First: CCOc1ccc(NC(=O)COC(=O)Cn2cnnn2)cc1OCC
Second: CCOc1ccc(NC(=O)c2cc(F)c(F)cc2Cl)cc1OCC
The “hERG current change (%, negative = inhibition) at 1uM” value of the first is higher: 7.48% for the first, 5.72% for the second.

First: COc1ccccc1C(CC(N)=O)c1ccco1 (centres unmarked)
Second: CCN(C(=O)c1cc2cccc(OC)c2oc1=O)c1ccccc1
The “hERG current change (%, negative = inhibition) at 1uM” value of the first is lower: 12.4% for the first, 14.2% for the second.

Compared with `CC(C)CN1C(=O)c2ccc(NC(=O)c3ccccc3F)cc2C1=O`, `CC(C)Oc1cccc(C(=O)NC(=S)Nc2ccc(Cl)c(C(=O)O)c2)c1` is higher in “hERG current change (%, negative = inhibition) at 1uM” value: -3.87% for the first, 5.37% for the second.

Compared with `Cc1c(Cl)cccc1N(CC(=O)O)S(C)(=O)=O`, `CN(CC(=O)Nc1ccccn1)S(=O)(=O)c1ccc(Cl)cc1` is lower in “hERG current change (%, negative = inhibition) at 1uM” value: 18.6% for the first, 10.1% for the second.

Going from `COc1ccccc1OCC(=O)NN=C(Cc1ccccc1)Cc1ccccc1` to `CCC(C(=O)Nc1ccccc1-c1ccccc1)c1ccccc1` (centres unmarked), the “hERG current change (%, negative = inhibition) at 1uM” value falls from 16.7% to 10.7%.

Going from `O=C(COC(=O)/C=C/c1ccc(Cl)cc1Cl)Nc1cc(C(F)(F)F)ccc1N1CCOCC1` to `COc1ccc(OC)c(/C=C/C(=O)OCC(=O)NCc2cccs2)c1`, the “hERG current change (%, negative = inhibition) at 1uM” value falls from 14.7% to 13.8%.

Going from `CCc1nc2oc3cc(OC)ccc3c(=O)c2c(=O)n1Cc1ccccc1` to `COc1ccc(-n2c(=O)[nH]c3ccccc3c2=O)c(OC)c1`, the “hERG current change (%, negative = inhibition) at 1uM” value rises from 4.36% to 8.59%.

Compared with `COc1cccc(-c2ccc(SCC(=O)NC3CCCCC3)nn2)c1`, `O=C(COc1ccccc1)Nc1nnc(S(=O)(=O)N2CCCCC2)s1` is higher in “hERG current change (%, negative = inhibition) at 1uM” value: 4.89% for the first, 17.1% for the second.

Going from `COc1ccc(CC(=O)NNS(=O)(=O)c2ccccc2[N+](=O)[O-])cc1OC` to `COc1ccc(CCNC(=S)NC(=O)c2c(-c3ccccc3Cl)noc2C)cc1OC`, the “hERG current change (%, negative = inhibition) at 1uM” value falls from 15% to 8.88%.

Going from `Cc1ccc(NC(=S)NCCc2ccc(F)cc2)c(C)c1` to `Cc1ccccc1NC(=S)NCCc1ccccn1`, the “hERG current change (%, negative = inhibition) at 1uM” value falls from 12% to -0.291%.

First: COc1ccc(/C=N/n2c(=O)[nH]c3c([nH]c4ccc(F)cc43)c2=O)cc1CN1CCCCC1
Second: COc1cccc(/C=N/N2CCN(Cc3ccccc3)CC2)c1O
The “hERG current change (%, negative = inhibition) at 1uM” value of the first is lower: -1.89% for the first, 8.01% for the second.

Going from `O=C1CN(C(=O)NCC(=O)N[C@H](Cc2ccccc2)C(=O)O)c2ccccc2N1` to `O=C(NCc1ccccc1)c1nc[nH]c1C(=O)NCc1ccccc1`, the “hERG current change (%, negative = inhibition) at 1uM” value falls from 12.7% to 3.69%.

Compared with `COc1cc(C(=O)Nc2ccccc2-c2nnn(CC(N)=O)n2)cc(OC)c1OC`, `COC(=O)c1[nH]c2cc(OC)c(OC)cc2c1NC(=O)Oc1ccccc1` is lower in “hERG current change (%, negative = inhibition) at 1uM” value: 12.7% for the first, 9.45% for the second.

Compared with `Cc1ccccc1NC(=O)COC(=O)CN1C(=O)NC(C)(C)C1=O`, `O=C(COC(=O)C1COc2ccccc2O1)Nc1cccc(Cl)c1` (centres unmarked) is higher in “hERG current change (%, negative = inhibition) at 1uM” value: 5.29% for the first, 9.86% for the second.

Going from `CN1C(C(=O)c2ccccc2)=C(N)c2ccccc2S1(=O)=O` to `CSc1nc2ccccc2n1CC(=O)Nc1ccccc1`, the “hERG current change (%, negative = inhibition) at 1uM” value falls from 18.6% to 9.15%.

Compared with `O=C(CSc1nnc(-c2cccnc2)n1Cc1ccco1)c1ccc(Br)cc1`, `CC(C)C(C)(C#N)NC(=O)CSc1nnc(-c2ccncc2)n1Cc1ccccc1` (centres unmarked) is higher in “hERG current change (%, negative = inhibition) at 1uM” value: -19.5% for the first, -0.509% for the second.

Going from `CC(SCc1ccccc1)C(=O)Nc1ccc(F)cc1` (centres unmarked) to `CC(=O)Nc1ccc(NC(=O)C(C)NC(C)c2cccc3ccccc23)cc1` (centres unmarked), the “hERG current change (%, negative = inhibition) at 1uM” value rises from 9.78% to 15.5%.

Compared with `CN(C(=O)CN1C(=O)c2cccc(N)c2C1=O)C1CCCCC1`, `CC1C(=O)N2CCCc3cc(S(=O)(=O)Nc4ccccc4C(N)=O)cc1c32` (centres unmarked) is lower in “hERG current change (%, negative = inhibition) at 1uM” value: 9.4% for the first, 5.86% for the second.

Compared with `O=C(Nc1ccccc1-c1nnc(SCc2ccccc2)o1)c1ccccc1`, `Cc1c(NC(=O)c2ccc3c(c2)OCO3)cccc1-c1nc2ccccc2o1` is lower in “hERG current change (%, negative = inhibition) at 1uM” value: 6.44% for the first, 1.15% for the second.

Compared with `Nc1nc(Cl)nc(N(c2ccccc2)c2ccccc2)n1`, `Oc1cccc2ccc(/C=C/c3ccccc3Cl)nc12` is lower in “hERG current change (%, negative = inhibition) at 1uM” value: 10.8% for the first, 6.57% for the second.

Compared with `CCOC(=O)c1cnc2c(-c3ccc(Cl)cc3)cnn2c1C`, `CCOC(=O)C1=C(O)c2ccccc2C(=O)/C1=C\c1ccc(CC)cc1` is lower in “hERG current change (%, negative = inhibition) at 1uM” value: 14.6% for the first, 0.269% for the second.

First: Cc1ccc(C(=O)Nc2c(C(=O)N3CCOCC3)cnn2-c2ccccc2)cc1
Second: Cc1ncccc1C(=O)N1CCCC(CNC(=O)c2ccc(-c3ccccc3)cc2)C1 (centres unmarked)
The “hERG current change (%, negative = inhibition) at 1uM” value of the first is lower: 0.423% for the first, 2.2% for the second.

Going from `NC(=O)c1ccc(/C=N/O)nc1` to `O=C(N/N=C/c1ccc(Cl)c([N+](=O)[O-])c1)c1ccc2nc[nH]c2c1`, the “hERG current change (%, negative = inhibition) at 1uM” value rises from -16.1% to 9.14%.

Compared with `O=C(CCl)NCCN1C(=O)S/C(=C\c2cccnc2)C1=O`, `O=C(Cn1cc(F)c(=O)[nH]c1=O)NCCO` is lower in “hERG current change (%, negative = inhibition) at 1uM” value: 9.41% for the first, 1.39% for the second.

First: Cc1ccc(C2N=C(N)Nc3nc(=O)c4ccccc4n32)cc1 (centres unmarked)
Second: COc1ccccc1NC(=O)/C(=C\c1cccnc1)NC(=O)c1ccc(C)cc1
The “hERG current change (%, negative = inhibition) at 1uM” value of the first is higher: 11.1% for the first, -25.1% for the second.

Going from `CSc1ccc(-c2nc3cnccn3c2Nc2ccc3c(c2)OCO3)cc1` to `O=C(/C=C/c1cn(-c2ccccc2)nc1-c1ccc2c(c1)OCCO2)NCCO`, the “hERG current change (%, negative = inhibition) at 1uM” value falls from 9.9% to -3.76%.

First: COC(=O)c1cc(C(=O)Nn2cnnc2)cc([N+](=O)[O-])c1
Second: CCn1cc([N+](=O)[O-])c(C(=O)Nc2nc(-c3ccc(C)c(C)c3)c(C)s2)n1
The “hERG current change (%, negative = inhibition) at 1uM” value of the first is higher: 17.6% for the first, 11% for the second.

First: CCCCn1c(N)c(N(CCOC)C(=O)c2ccc(N3CCCC3)c([N+](=O)[O-])c2)c(=O)[nH]c1=O
Second: CCOc1ccccc1NC(=O)NCCN1CCCCC1
The “hERG current change (%, negative = inhibition) at 1uM” value of the first is lower: 12.7% for the first, 14.1% for the second.

Compared with `Cc1c(Cl)c([N+](=O)[O-])nn1CCCC(=O)Nc1c(C)n(C)n(-c2ccccc2)c1=O`, `Cn1nc(C(=O)N2CCN(c3ccc(Cl)cc3)CC2)c2c1-c1ccccc1S(=O)(=O)C2` is lower in “hERG current change (%, negative = inhibition) at 1uM” value: 18.9% for the first, -6.38% for the second.

Going from `Cc1c(OCC(=O)NCC2CCC(C(=O)NCCCO)CC2)ccc2c(-c3ccccc3)cc(=O)oc12` (centres unmarked) to `Cc1ccccc1NS(=O)(=O)c1ccc(OCC(=O)NCC2CCCO2)cc1` (centres unmarked), the “hERG current change (%, negative = inhibition) at 1uM” value rises from -4.36% to 7.91%.

Compared with `CC1Sc2ccc(C(=O)NCc3cccc(C(F)(F)F)c3)cc2NC1=O` (centres unmarked), `COC(=O)C1=C(c2cccc(OCc3ccccc3)c2)C[C@@H]2CC[C@H]1N2C(=O)NCc1ccccc1C(F)(F)F` is higher in “hERG current change (%, negative = inhibition) at 1uM” value: 1.77% for the first, 9.71% for the second.

Going from `Cc1nc(Cl)c2c(n1)N(CC(N)=O)C(=O)CO2` to `Cc1ccc(C)c(S(=O)(=O)C(C#N)c2nc3ccccc3nc2N2CCOCC2)c1` (centres unmarked), the “hERG current change (%, negative = inhibition) at 1uM” value rises from 12.2% to 15.5%.

Going from `CCc1ccc2c(CN(C)Cc3ccc(OC(F)F)c(OC)c3)cc(=O)oc2c1` to `CCOC(=O)c1c(C)[nH]c(C(=O)N(C)CC(=O)Nc2ccc(OC)cc2)c1C`, the “hERG current change (%, negative = inhibition) at 1uM” value rises from -18.8% to -1.06%.

Compared with `CNC(=S)NNC(=O)c1noc(C)c1C(=O)N1CCN(C(c2ccccc2)c2ccccc2)CC1`, `CNC(=S)N1CCN(C(=O)c2ccco2)CC1` is lower in “hERG current change (%, negative = inhibition) at 1uM” value: 22.9% for the first, 7.89% for the second.

Going from `CCOc1ccc2oc(C(=O)NNC(=O)c3csc(N4CCOCC4)n3)c(C)c2c1` to `COc1ccc2nc(NC(=O)C3CCCN(S(=O)(=O)c4c(C)noc4C)C3)sc2c1` (centres unmarked), the “hERG current change (%, negative = inhibition) at 1uM” value rises from 1.7% to 9.33%.

First: Cc1cc(N2C(=O)C(O)=C(C(=O)c3cccs3)C2c2cccc(Br)c2)no1 (centres unmarked)
Second: O=C1C(=O)N(Cc2ccco2)C(c2cccs2)/C1=C(\O)c1cccc([N+](=O)[O-])c1 (centres unmarked)
The “hERG current change (%, negative = inhibition) at 1uM” value of the first is higher: 15% for the first, 8.91% for the second.

Going from `CCOc1c(C#N)c(C#N)c2nc(C)cc(C)n12` to `CCCCn1nc(NS(=O)(=O)c2cccc3nonc23)c2cc3cccc(C)c3nc21`, the “hERG current change (%, negative = inhibition) at 1uM” value rises from -2.6% to 11.1%.

Going from `COc1ccc(OC)c(NC(=O)C2C(C(=O)O)C3(Cl)C(Cl)=C(Cl)C2(Cl)C3(Cl)Cl)c1` (centres unmarked) to `COc1cc(C(=O)N[C@H](C(=O)Nc2nnc(C3CC3)s2)C(C)C)cc(OC)c1OC`, the “hERG current change (%, negative = inhibition) at 1uM” value falls from 8.4% to -5.62%.

Going from `Cc1ccc(C(=O)NCC(=O)OCCOc2cccc(Cl)c2)cc1` to `Cc1cccnc1NC(=O)c1ccc(NS(=O)(=O)/C=C/c2ccccc2)cc1`, the “hERG current change (%, negative = inhibition) at 1uM” value falls from 3.31% to 0.119%.

Compared with `C[C@@H](NC(=O)[C@@H]1Cc2ccccc2CN1)C(=O)NC1CCCC1`, `CC(=O)NC(c1cc(Cl)c2cccnc2c1O)C1CC1` (centres unmarked) is lower in “hERG current change (%, negative = inhibition) at 1uM” value: 11.9% for the first, 7.78% for the second.

Compared with `Cc1ccccc1N`, `CC(=O)NS(=O)(=O)c1ccc(NS(=O)(=O)c2ccc3ccccc3c2)cc1` is higher in “hERG current change (%, negative = inhibition) at 1uM” value: 11.2% for the first, 12.6% for the second.

Compared with `Cc1ccc(C)c(NC(=O)C2CCCN(S(=O)(=O)c3c(C)nn(C)c3C)C2)c1` (centres unmarked), `CC1CCCN(C(=O)Cn2nnc(-c3ccc(F)cc3)n2)C1` (centres unmarked) is lower in “hERG current change (%, negative = inhibition) at 1uM” value: 18.8% for the first, 3.02% for the second.

Going from `C=CCN(N=Nc1cccc([N+](=O)[O-])c1)c1cccc([N+](=O)[O-])c1` to `O=C(Cn1nc(-c2ccco2)ccc1=O)Nc1ccc(Br)cc1`, the “hERG current change (%, negative = inhibition) at 1uM” value falls from 23.8% to 8.87%.
